Test results: PubChem BioAssay AID1508624 (National Center for Advancing Translational Sciences (NCATS), 2021)
About 120 (0.25%) of roughly 48,000 compounds were called active. Not shown: some 4% with an inconclusive outcome. Calls follow the shape of the dose curve; as a rule, active = well fitted activation curve with a large enough effect; inconclusive = small, poorly fitted or top-dose-only effect, or another doubt; inactive = no such curve, though single readings can be large or run the other way. The list shows a part of the results.

test: Primary qHTS for Identification of Small Molecule Activators of Huntingtin-Antisense Promoter Activity; settings: HEK293 HTT-AS promoter firefly luciferase reporter, 24 h; series mostly up to 57.5 µM; activity change, positive = activation: at the top concentration; also: nearly all actives have a fitted effect of over 55% in size
Summary of the method: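 HEK293 Fluc reporter, 2,500 cells/well, 24 h pre-culture; cpds up to 57.5 uM final, 24 h 37 degrees C; Dual-Glo, 10 min RT; normalized vehicle = 0%, zero RLU = -100%.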

Activity change, positive = activation, inactive:
Cn1c(=O)c2c(-c3ccccc3Cl)n(Cc3ccc(Cl)cc3)cc2n(C)c1=O -17.8%
Cc1cccc(N2CCN(C(=O)CCC(=O)NNc3nc4ccccc4c4nc(C)nn34)CC2C)c1 (stereo unspecified) -22.2%
COc1cc(C2c3c(-c4c(C)cc(C)cc4O)n[nH]c3C(=O)N2CCCOC(C)C)cc(OC)c1OC (stereo unspecified) -21%
CCc1ccccc1NC(=O)CN1C(=O)COc2ccc(S(=O)(=O)Nc3ccccc3)cc21 -25.7%
CCN1CCN(c2cc(-c3ccc(F)cc3)c3c(n2)CCCCCC3)CC1 -3.27% [at 25.1 µM, percent change from vehicle, -100% = no light]
C#CCN(C)CC1=Cc2ccccc2Oc2ccccc21 -15.9%
Cc1ccc(N2CC(c3nnc(Cc4ccccc4Cl)o3)CC2=O)cc1 (stereo unspecified) -15.7%
COc1ccccc1Cc1nc2ccccc2nc1SCC(=O)Nc1ccccc1C(F)(F)F -1.41%
COc1ccc(-c2nc3c(C#N)c[nH]n3c2NC2CCCC2)cc1 22%
COc1ccc(S(=O)(=O)n2nc(-c3ccco3)nc2NCc2ccc(OC)c(OC)c2)cc1 -16.3%
COc1ccc(N(C(=O)c2ccc(Cl)cc2)S(=O)(=O)c2ccc(C)cc2)cc1 -20%
CCN1CCN(c2c(S(=O)(=O)c3ccc(Cl)cc3)cnc3ccccc23)CC1 -1.08%
CC(NC(=O)c1ccc(Cn2c(=O)c3cccn3c3cccnc32)cc1)c1ccccc1 (stereo unspecified) -20.1%
Cc1ccc(NC(=O)Cn2c(=O)n(CCCS(=O)(=O)C3CCCCC3)c(=O)c3ccccc32)cc1F -11.9%
COc1ccc(C(=O)c2oc3ccccc3c2NC(=O)COc2ccc(C)cc2)cc1 9.74%
COc1ccc(S(=O)(=O)c2cc3cc(OC)ccc3oc2=O)cc1 19.9%
CCc1ccccc1NC(=O)N1CCc2cc(OC)c(OC)cc2C1CC(=O)OC (stereo unspecified) -5.1%
Cc1ccc(C)c(Nc2nc3c(S(=O)(=O)c4ccc(Br)cc4)nnn3c3ccsc23)c1 -49%
CC1CCCCN1c1nc(-c2ccc(C(C)(C)C)cc2)nc2ccccc12 (stereo unspecified) -0.103%
CCOC(=O)c1cc(OC(=O)c2cccc(Cl)c2)n(-c2ccccc2)n1 -18.8%
Cc1ccc(C)c(N2CCN(C(=O)Cn3c(C)c4cnn(-c5ccccc5)c(=O)c4c3C)CC2)c1 -46.6%
COc1cc(NC(=O)Cn2c(=O)nc(-c3ccccc3F)c3cc(Cl)ccc32)cc(OC)c1 -85.6%
CCN(C(=O)Cn1cc(C(=O)c2ccc(F)cc2)c(=O)c2ccc(C)nc21)c1cccc(C)c1 -26.6%
COC(=O)c1ccccc1NC(=O)Cn1nc(C(F)(F)F)c2c1CCCC2 -26.9%
CCOc1ccc(C(=O)N2CCC(c3ccncc3)CC2)cc1 -35.9%
CCC1CN(C(=O)N2CCC(C(=O)NCc3ccco3)CC2)c2cc(C)ccc2O1 (stereo unspecified) -23.1%
CC(C)c1nc2ccc(C(=O)NCCCN3CCN(c4ccc(F)cc4)CC3)cc2o1 12.5%
COc1cccc(-n2c(-c3ccc(C)cc3)cc3c2CC(C)(C)CC3=O)c1 -17.2%
Cc1cc(C)c2c(CC(=O)Nc3c(C(=O)c4ccc(F)cc4)oc4ccccc34)coc2c1 -1.4%
Cc1ccc2c(c1)CC(C)N2S(=O)(=O)c1nnc(NC(=O)CC(C)C)s1 (stereo unspecified) -28.3%
CC(C)c1ccc2occ(CC(=O)Nc3cccc(C(F)(F)F)c3)c2c1 -73.3%
COc1ccc(OC)c(NC(=O)CCc2c(C)nc3c(c(C)nn3C(C)(C)C)c2C)c1 -31.6%
COc1ccccc1N1CCN(c2cc(C)nc3c(-c4ccc(Cl)cc4)c(C)nn23)CC1 -6.77%
CN(C)c1ccc(CNC(=O)CCn2c(=O)c3cccn3c3ccc(F)cc32)cc1 -11.3%
COc1cccc(-c2[nH]c3c(c2-c2c(-n4cccc4)n(C)c(=O)[nH]c2=O)c(=O)[nH]c(=O)n3C)c1 -6.44%
COCCCNc1nc2c(c(=O)n(C)c(=O)n2C)n1Cc1ccccc1 -20%
COCCOC(=O)C1=C(C)N=C2SCCC(=O)N2C1c1ccc(OCc2ccccc2)c(OC)c1 (stereo unspecified) -11.1%
COCCNC(=O)CCSc1nc(-c2ccc3c(c2)OCO3)cc(C(F)(F)F)n1 -22.4%
CCc1nnc2c(NCc3cccc(OC)c3)nc3ccccc3n12 -9.83%
CCOc1ccccc1C(=O)Nc1nnc(COC)s1 18.3%
Cc1ccc(C(=O)N2CCc3cc(CNC(=O)c4ccnn4C)ccc32)cc1 -41.5%
CCN(CC)S(=O)(=O)c1ccc2c(c1)c(=O)c(C(=O)NCc1ccccc1OC)cn2C -9.42%
Cc1cn(C)c(CC(=O)N2CCN(c3ccc(F)cc3)CC2)c1C(=O)O -5.84%
Cn1c(=O)c2c(ncn2C)n(C)c1=O
Cc1ccc(NS(=O)(=O)c2ccc3c(c2)NC(=O)CCS3)cc1F -33%
O=C(NCc1ccc2c(c1)CCN2C(=O)c1ccccc1)c1ccc(Br)o1 -0.675%
Cc1ccc(-c2nc(-c3cc4cccc(OCc5cccc(F)c5)c4oc3=O)no2)cc1 -7.71%
CCOc1ccc(-n2c(Cc3ccccc3)nnc2SCc2nc(-c3cccs3)no2)cc1 -17%
O=C(Nc1ccc(Br)cc1)c1ccc(Cl)c(S(=O)(=O)N2CCCCCC2)c1 -27.6%
COc1cccc(NC(=O)c2sc3nc(C)c(C(=O)Nc4ccc(C)cc4C)c(-c4cccs4)c3c2N)c1 -7.56%
Cc1cc(C)cc(NC(=O)C2CCN(S(=O)(=O)c3c(C)noc3/C=C/c3ccco3)CC2)c1 -12.6%
Cc1ccn2c(Nc3c(C)cccc3C)c(-c3ccc(Cl)s3)nc2c1 -5.22%
CCCCN(CCCC)C1=C(C(=O)c2ccccc2)N(CC)S(=O)(=O)c2ccccc21 -39.5%
COC(=O)CN1C(=O)C(C)(C)c2cc(S(=O)(=O)NCc3ccc(Cl)cc3)ccc21 -6.37%
Cc1ccc2scc(N3CCN(c4cccc(C(F)(F)F)c4)CC3)c(=O)c2c1 7.32%
CCc1ccc(NC(=O)c2ccc3c(O)c(S(=O)(=O)c4ccccc4)c(=O)[nH]c3c2)cc1 0.223%
COc1ccccc1C(=O)Nc1ccc(OCc2cc(=O)n3cccc(C)c3n2)cc1 -8.23%
Cc1cc(NC(=O)CSc2nc3c([nH]c4ccccc43)c(=O)n2-c2ccc(Cl)cc2)no1 -18.1%
Cc1cc(=O)n(Cc2ccccc2Cl)c2c1c(C)nn2-c1ccccc1 -10.4%
O=C(NCC1CCN(Cc2ccccc2Cl)CC1)c1cc2ccc3cccnc3c2[nH]1 -0.48%
O=C(CC1Oc2ccccc2NC1=O)NCc1ccc(F)cc1 (stereo unspecified) -6.93%
COc1ccc(CC(=O)Nc2nnc3n2CCS3)cc1 -1.76%
Cc1ccc(CSc2nc3ccsc3c(=O)n2CCC(C)C)cc1 -16%
Cc1cccc(OCc2nnc(-c3ccccc3)o2)c1 22.6%
CCN1CCN(C(=O)c2ccc3c(c2)N(Cc2ccc(F)cc2)C(=O)c2ccccc2S3(=O)=O)CC1 -13.8%
CCOc1ccc(NC(=O)c2oc(=O)c3ccccc3c2-c2ccc(C)cc2)cc1 -21.7%
CCn1c2c(c(=O)n3ncc(C(=O)Nc4ccc(F)cc4Cl)c13)CN(Cc1ccc(OC)cc1)CC2 -21.2%
CCCN(CCC)c1cc(C)nc2nc(-c3ccc(Cl)cc3)nn12 -5.52%
Cc1ccc(C(=O)CSc2nc(-c3ccccc3)nc3c2CCCC3)cc1C -10.1%
CC1=C(C(=O)Nc2ccc(C)cc2C)C(c2cccs2)n2nc(SCc3ccc(Cl)cc3)nc2N1 (stereo unspecified) 0.185%
COc1ccc(-c2csc3ncnc(Nc4cccc(F)c4)c23)cc1 -2.53%
CC(=O)c1ccc(NC(=O)CC2Sc3ccccc3NC2=O)cc1 (stereo unspecified) -23.1%
Cc1cc(Oc2nc3ccccn3c(=O)c2/C=C(\C#N)c2nc3ccccc3s2)ccc1Cl -2.69%
Cc1nc2nc(NC(=O)C(C)C)[nH]n2c(=O)c1Cc1ccccc1 -13.2%
Cc1ccc(NC(=O)C2CCN(C(=O)c3cnn(-c4ccccc4)c3-n3cccc3)CC2)cc1Cl -44.4%
Cc1ccc(Nc2nc(C(N)=O)c(NC(=O)c3ccccc3Br)s2)cc1 2.57%
Cc1ccc2c(c1)c1c(c(=O)n(-c3ccccc3C)c(=O)n1Cc1cccc(F)c1)n2C -29.5%
Cc1ccc(Cl)cc1NC(=O)C(NS(=O)(=O)c1ccc2c(c1)CCC(=O)N2)c1ccccc1 (stereo unspecified) -21.3%
CCc1ccc(NCc2cc3cc(OC)c(OC)cc3n(CC(=O)Nc3ccc(F)cc3)c2=O)cc1 -5.62%
Cc1cccc(NC(=O)CC2C(=O)OCCN2Cc2ccccc2)c1 (stereo unspecified) -22.9%
CC1=C(c2ccc(F)cc2)S(=O)(=O)NC1=NCc1ccccc1Cl -20.9%
COc1cccc(CNC(=O)CCn2c(=O)c3cccn3c3cccnc32)c1 -6.32%
Cc1ccccc1C(=O)NC(=O)Nc1ccc(-n2nc(C(F)(F)F)cc2C(F)(F)F)cc1 -9.18%
COc1ccc2cc(CNc3ccccc3)c(=O)n(CC(=O)Nc3ccc(C(C)=O)cc3)c2c1 -22.9%
CCC(=O)N1CCc2cc(S(=O)(=O)NC(Cc3ccccc3)C(=O)NCc3cccc(OC)c3)ccc21 (stereo unspecified) -2.57%
Cc1ccc2c(CC(=O)Nc3c(C(=O)c4ccc(F)cc4)oc4ccccc34)coc2c1C -2.75%
CC(C)c1ccc(NC(=O)C(Cc2ccccc2)n2cccc2)cc1 (stereo unspecified) -26.3%
Cc1ccc(C)c(S(=O)(=O)c2cn(Cc3ccccc3)c3cc(N4CCCC4)c(F)cc3c2=O)c1 -21.5%
CCOc1ccc(NC(=O)Cn2c(=O)n(CC(=O)NCCc3ccccc3)c(=O)c3sccc32)cc1 -11.1%
Cc1ccc(-n2ccn(CC(=O)c3ccc(F)cc3)c(=O)c2=O)cc1C 4.89%
CC(=O)N1CCCc2cc(S(=O)(=O)Nc3ccc(OC(F)(F)F)cc3)ccc21 -20.9%
Cc1cccc(C)c1NC(=O)c1cc(S(=O)(=O)N2CCCc3ccccc32)ccc1F -37.3%
COc1cccc(C(=O)NCCc2sc(-c3cccc(C)c3)nc2C)c1 -1.87%
Cc1ccc(-n2[nH]c(C)c(N=Nc3cccc(-c4cccc(C(=O)O)c4)c3O)c2=O)cc1C -33.2%
COc1cccc(NC(=O)c2oc3ccccc3c2NC(=O)c2ccc(OC(C)C)cc2)c1 27.3%
CCOC(=O)c1ccc(N2C(=O)c3[nH]nc(-c4ccccc4)c3C2c2ccc(C(C)C)cc2)cc1 (stereo unspecified) -58.4%
